Experimental findings from the RNAGym collection of RNA variant scans (doi:10.7554/elife.90254) are described below.

Read counts are not given, so values of variants with three or more changes are uncertain.

First the molecules themselves.
B1: LINE1-mini (parent)
chain: GGCAGAGCUCAACACAGCGUGGCAAAGUGGCUGUGGCUAGACUGCC

The variants in this data set derive from B1. As to the kind of experiment: self-cleavage, relative activity (ratio to wild type); higher = more cleavage; in vitro, sequencing; the parent is a self-cleaving ribozyme.
As to GGCAGAGCUCAAAACAGCGUGGCAAAGUUGCUGUCACUAGACUUCC, the self-cleavage was 0.1. Turning to GGCAGAGCUCAAAACAGCGUGGUAAAGCGGAUGUGGCAAGACUGCA, the self-cleavage stood at 0.03. The value for GGCAGAGCUCAAAACAGCGUGGCAAAGUGGCUGUGUCUAUACUACC was 0.25. GGCAGAGCUCAAAACACGGUGGCAAAGUGGCUGUGGCUAGACUGUC: the self-cleavage came out at 0.02. To GGCAGAGCUCAAGACACCGUGGCAAAGUGGCUGUGGCUGGACUGGC belongs 0; to GGCAGAGCUCAAGGCAGCGUGGCAAAGUGGCCGUGGCUAGACUGCC, 0.02. To GGCAGAGCUCAAAACAGUGUGGCAAAGUGGCUGUCGCUGGACUGCC belongs 0.14. The value for GGCAGAGCUCAAAACAGCGUCGCAAAGUGGUUGUGGCUAGACUGCC was 0.17. Consider GGCAGAGCUCAAAACAGCCUGGCAAAGUGGCUGAGGCUAGACUGCC, for which the self-cleavage worked out at 0.05. The value for GGCAGAGCUCAAGACAGCGUGGGAAAGUGGGUGUGGCUAGACUGCC was 0.06; that for GGCAGAGCUCAAAACAUCGUGGCAAAGUGGCUGUGGCUAGUCUGUC was 0.03. As for GGCAGAGCUCAAAACAACGUGGCAAAGUGGCUGUGGCUAUACUGCC, the self-cleavage is 0.05. As for GGCAGAGCUCAAGAAAGCGUGGCAAGGUGGCCGUGGCUAGACUGCC, the self-cleavage was 0.04. Consider GGCAGAGCUCAAAACAGCGUGGAAAGAUGGCUGUGGCUAGACUGCC, for which the self-cleavage was 0.08. For GGCAGAGCUCAAGACAACGUGGCACAGUGGCCGUGGAUAGACUGCU, the self-cleavage was determined as 0. The value for GGCAGAGCUCAAAACAGCGUGGCAAAGUGGCUAUGGCUAGACUCCC was 0.06; that for GGCAGAGCUCAAAACAGCGCGUCAAAGUGGCUGCGGUUAGACUGCC was 0.04. The value for GGCAGAGCUCAAAACAGCCUGCCAAAGUGGCUUUGGCUAGACUGCC was 0.01; that for GGCAGAGCUCAAAAUAGCGUGGCCACGUGGCUGUGGCUAGACUUCC was 0.02. To GGCAGAGCUCAAGACAGCGUGGUACAGUGGUUUUUGCUAGACUGCC belongs 0.05. For GGCAGAGCUCAAGACAGCGUGGCAAUGUGGCUGUGGCUAGACUGAC, the self-cleavage worked out at 0.18. On to GGCAGAGCUCAAAACAGCGUGGCAAAGUGGCUGUGGCCAGACUGGC, for which the self-cleavage worked out at 0.07. To GGCAGAGCUCAAGACAGCGUGGUAAAGUGGUUGUGGCUAGACUGCC belongs 0.03; to GGCAGAGCUCAAGAGUGCGUGGCAAAGUGGCUGUGGCUGGACUGCC, 0.07; to GGCAGAGCUCAAGGCAGCUUGGCAAAGUGGCUGUGGCUAGACUGCC, 0.03.

Consider GGCAGAGCUCAAAACAGGGUGUCAAAGUGGCUGUGGCUAGACUGCC, for which the self-cleavage was found to be 0.06. To GGCAGAGCUCAAAACAGGGUGGCAAAGUGGCUGUGUCUGGACUGCC belongs 0.06.

With GGCAGAGCUCAAAACAGCUUGGGAAAGUGGCUGUGGCUAGACUGCC, the self-cleavage is 0.1.

Take GGCAGAGCUCAAAACAGGGUGGCAAAGGGGCUGUGGCUAGACCGCU: the self-cleavage amounted to 0.01. The value for GGCAGAGCUCAAAACAGCGUGGCAAAUUGGCUGUUGCUAGACUGCC was 0.76; that for GGCAGAGCUCAAGACAGCGUGGCAGAGUGCCUGUGGUUAGACUGCC was 0.08. The value for GGCAGAGCUCAAAACAGCGUGGAAAAAUGGCUGUGGCUAGACUGCG was 0.11; that for GGCAGAGCUCAAGAAAGCGAGGCCAAGUGGCUGUGGCUAGACUGCC was 0.04. The value for GGCAGAGCUCAAGACAGCGUGGCAACGUUUCUCUGGCUAGACUGCC was 0.04; that for GGCAGAGCUCAAAAGAGCGUGGCCAAGUGGCUGUGGCUCGACUGCC was 0.08; that for GGCAGAGCUCAAGACCGCUUGGCAAAGUGGCUGUGGCUAGACUGCC was 0.12. For GGCAGAGCUCAAAACAGCGUGGCAAAGUGACCGUGGCUAGACUGCC, the self-cleavage turned out to be 0.03. For the variant GGCAGAGCUCAAAACAGCGGGGCAAACUGGAUGUGGCUAGAGUGCC, the self-cleavage came out at 0.05.

As for GGCAGAGCUCAAAAGAACGUGGCACAGUGGCUGUGGCUAGACUGCC, the self-cleavage came out at 0.04. The value for GGCAGAGCUCAAAACAGAGUGGCAAACUGGCCGUGGCUAGACUGCC was 0.06; that for GGCAGAGCUCAAAACAGCGUUGCAAAGUGGCUGUGGCUAGACUGGC was 0.02. The value for GGCAGAGCUCAAAACAGCGCGGCAAAUUGGCUGUGGCUAGACUGCC was 0.06. For the variant GGCAGAGCUCAAGACAGCGUGGCAAAGUGGCUGUGGCUAGAAUGCU, the self-cleavage came out at 0.3. With GGCAGAGCUCAAGACACCGUGGCAUAGUGGCUGUGGCUAGACUGCA, the self-cleavage is 0.03. On to GGCAGAGCUCAAGAAUGCGUGGCAAAUUGGCUCUGGCUAGACUGCC, for which the self-cleavage amounted to 0.02. The value for GGCAGAGCUCAAAAAAGCGCGGCACCGUGGCUGAGGCUAGACUGCC was 0.03.

As to GGCAGAGCUCAAAACAGCGUGGAAAAGUGGCUGUGGGUAGACUGCC, the self-cleavage turned out to be 0.05.

Take GGCAGAGCUCAAGACCGCGUGGCCAAGUGGCUGUGGCUAGAAUGCC: the self-cleavage was 0.03. With GGCAGAGCUCAAAACAGCGUGACAACGUGGCUGUGGCUAGACUGCC, the self-cleavage was 0.1. To GGCAGAGCUCAAAACAGCGCGGCAAAGUGGCUGGGGCUAGACUGCC belongs 0.02; to GGCAGAGCUCAAAACAGCGUUGCAAAGUGGCAGUGGCUAGACUGCC, 0.28; to GGCAGAGCUCAAGACAGCGUGGGAAAGGGGCUGUGGCUAGACCGCC, 0.02. The value for GGCAGAGCUCAAGACAGCGUGGCAACGUGUCUGUGGCUAGACUGCC was 0.05; that for GGCAGAGCUCAAGACAGAGAGGCAAAGAGGCUGUGGCUAGACUGCC was 0.11; that for GGCAGAGCUCAAGUCAGCGUGGUAAAGUGGCUGUGGCUAGACUGCC was 0.03.

In the case of GGCAGAGCUCAAGACAGGGUGCCAAAGUGGCUGUGGGUAGACUGCC, the self-cleavage worked out at 0.02. With GGCAGAGCUCAAAACAGCGUGGCAAAGUGGCUCUGGCUAGACUGAC, the self-cleavage turned out to be 0.02.

On to GGCAGAGCUCAAAACAGAGGGGCAAAGUGGCUGUGGCUAGACUGCC, for which the self-cleavage came to 0.03. With GGCAGAGCUCAAAACAGCGUGUCAAAGUGGCUGUGGCUAGUCUGCC, the self-cleavage was found to be 0.14. With GGCAGAGCUCAAGACAGGGUGACAAAGUGGCUGUGGCCAGACUUCU, the self-cleavage amounted to 0.02. In the case of GGCAGAGCUCAAGACGGCGUGGCAAAGUGGCUGUGCCUAAACUGCC, the self-cleavage amounted to 0. As to GGCAGAGCUCAAGACGGCGUGGCAAAGUGGCAGUGGCUAGACUGCC, the self-cleavage was determined as 0.02. Regarding GGCAGAGCUCAAAACAGCAUCGUAAAGUGGCUGUGGUUAGACUGCC, the self-cleavage worked out at 0.12. In the case of GGCAGAGCUCAAAACAUCGCGGCAAAGUGGCUGUGGCUCGACUGCC, the self-cleavage amounted to 0.04.

As to GGCAGAGCUCAAGACAGCGUGGCAGUGUGGCUCUGGCUAGAGUGCC, the self-cleavage is 0.01. To GGCAGAGCUCAAGACAGCGUGGAAACUUGGCUGUGGCUAGACUGCC belongs 0.48; to GGCAGAGCUCAAAACAGCGUGGCAAAGUGGCCAUGGCUAGACUGCC, 0.01. Regarding GGCAGAGCUCAAAACAGCGUGGCAAAGCGGCUGUGGUUAGAUUGCC, the self-cleavage was 0.05. For the variant GGCAGAGCUCAAAACAGCGUCGUAAAGUGGCUGCGGCUAGACUGCC, the self-cleavage amounted to 0.05. To GGCAGAGCUCAAAACAGCGUGGCAAAGGGGCUGUGGCUACACUGCC belongs 0.04. The value for GGCAGAGCUCAAAACAGCGUGGCAAAGUGGCUGCGGCUAGACUGUC was 0.04.

As for GGCAGAGCUCAAAACAGGGUGGGAUAGUAGCUGUGGCGAGACGGCC, the self-cleavage was 0.04.

For GGCAGAGCUCAAAACAGCAUGGCAAAGUGGCUGUGGCUAGCGUGCC, the self-cleavage was 0.04. As for GGCAGAGCUCAAAACAGCGUGGCAAAGUGGCUGUGGUUAAACUGCC, the self-cleavage worked out at 0.29.

For the variant GGCAGAGCUCAAGACAGCGUGGCAAGGUGGCUGUGGCUAGACUGUC, the self-cleavage is 0.49.

GGCAGAGCUCAAAACAGCGUGGCAAAGUGGGUGUGGCUAGAAUGCC: the self-cleavage came to 0.1. Regarding GGCAGAGCUCAAGACAGCGUGGCAAAGUGGUUGUGGCUAGACUUCC, the self-cleavage was 0.14. Regarding GGCAGAGCUCAAAACAUCGUGGCAUAGUGGCUGUGGCUAGACUGCC, the self-cleavage was determined as 0.09. For GGCAGAGCUCAAAACAGCGUGGCAAAGCGGCUGUGGUUAGCCUGCC, the self-cleavage was 0.02.

On to GGCAGAGCUCAAGACAGGGUGCCAAAGUGGCUGUGUCUAGACUGCC, for which the self-cleavage is 0.06. To GGCAGAGCUCAAGAAAGCGUGGCAAAGUGGCUGUGGCUAGACUUCC belongs 0.04. Consider GGCAGAGCUCAAAAAAGCGUGGCAAAGCGGCUGAGGCUAGACUGCC, for which the self-cleavage amounted to 0.08.

For the variant GGCAGAGCUCAAAACAGCCUGGCAAAGUGGCUGUGGCUAGACUGCA, the self-cleavage was found to be 0.04.

As for GGCAGAGCUCAAAACAGCGUGGCAAAGUGGCUCUGCCUAGACUGCC, the self-cleavage stood at 0.02. To GGCAGAGCUCAAAACAGCGUGGCAAAGUUGCUGUGGCUGGACUGCC belongs 0.03. The value for GGCAGAGCUCAAAACAGCGUGGCAAAGUGUCUGUGGCUAUACUGCC was 0.07; that for GGCAGAGCUCAAAACAGAUUUGCAAAGUGGCUGUGGGUAGACUGCC was 0.03; that for GGCAGAGCUCAAGACAGCGUGGCAAAGUGGAUGUGGCUAGACUGAC was 0.03. Take GGCAGAGCUCAAAACAGCGUGGCAAAGUGGCCGUGGAUAGACUGCC: the self-cleavage amounted to 0.06. For GGCAGAGCUCAAAACAGCGUGGCAAAGUGGCUGUUGCGAGACUGCC, the self-cleavage came to 0. The value for GGCAGAGCUCAAAAUAGCGUGGCAAAGUGACUGUGGCUAGACUGCC was 0.16; that for GGCAGAGCUCAAAACAGCUUGGCAAAGUGGCUGUGGCUCGACUGCC was 0.04.

For GGCAGAGCUCAAAACAGCGUAGCAAAGUUGGUGUGGCUAGACUUCC, the self-cleavage came out at 0.03. With GGCAGAGCUCAAGACAGCGUGGAAACGUCGCUGUGGCUAUACUGCU, the self-cleavage was determined as 0.02. To GGCAGAGCUCAAGACAGGGUGGCAAAGUGACUGUGGCUUGACUGCU belongs 0.02. The value for GGCAGAGCUCAAAACAGCGUGGCAAAUUGGCUGUGGUUACACUGCC was 0.02; that for GGCAGAGCUCAAGACAGCGUGGCAAAGUGGCUGUGGCUUGACUUCC was 0.02. The value for GGCAGAGCUCAAAACAGCCUGGCAAAGUGGCAGUGGCUAGACUGCC was 0.04; that for GGCAGAGCUCAAAACAGCGUAGCCAAGUAGCUGUGGCUAGACUGCC was 0.19.

As for GGCAGAGCUCAAAACAGCGUGGCAAAGGGGCUGUGGCUAGACUGGC, the self-cleavage amounted to 0.02. The value for GGCAGAGCUCAAAACAGCGUGGCAAAGUUGCUGUAGCUAGACUGCC was 0.19. The value for GGCAGAGCUCAAGACAGCGUGGCAAAGUGGCUGUGGAUAGACUGUC was 0.17.

In the case of GGCAGAGCUCAAAACAGGGUGGCAUAGUGGCUGGGGCUUGUCUGCC, the self-cleavage was determined as 0.08.

Consider GGCAGAGCUCAAAACAGAGUGGCAAAGUGGAUGUGGCUAGGCUGCC, for which the self-cleavage was determined as 0.01.

On to GGCAGAGCUCAAAACAGCGGGGCAAUGUGGCUCUGGCUAGGCUGCC, for which the self-cleavage stood at 0.01.

As to GGCAGAGCUCAAGACACAGUGGCAAAGUCGCUGUGGAUAGACUGCC, the self-cleavage amounted to 0.1. As to GGCAGAGCUCAAGUCAGCGUGGCAAAGAGGCUGUGGCUAGACUGCC, the self-cleavage was 0.05. To GGCAGAGCUCAAAACAGCGUGGCAAAGUGGCUGAGGCUAGUCUGCC belongs 0.01. To GGCAGAGCUCAAAACAGGGUGGCAAAGUGGCUUUGGCUAGAUUGCC belongs 0.02; to GGCAGAGCUCAAAAUAGCGUGGCAAAGUGGCUGUGGCUAGACUGGC, 0.05.

For the variant GGCAGAGCUCAAGACAGGGUCGCAAAGUGGCUGUGGCUAGACUGCC, the self-cleavage was found to be 0.11. Turning to GGCAGAGCUCAAAACAGCCUGGCAAAGUGGCUUUGGGCAGACUGGC, the self-cleavage was found to be 0.02.
